In a collection of fitness landscapes (doi:10.1016/j.celrep.2020.107928):
The full ranking holds about 81,000 sequences; the median of “one-hybrid fitness for binding parS DNA” is about -0.17, and the highest 2% start at about 0.51. The list shows a part of the results.

B1: Caulobacter ParB omega fusion; a variant is named by its letters at X, in order, B8GW30 (parent)
chain: MESVVVGEPGMSEGRRGLGRGLSALLGEVDAAPAQAPGEQLGGSREAPIEILQRNPDQPRRTFREEDLEDLSNSIREKGVLQPILVRPSPDTAGEYQIVAGERAWRAAQRAGLKTVPIMVRELDDLAVLEIGIIENVQRADLNVLEEALSYKVLMEKFERTQENIAQTIGKSXSHVANXMRLLXLPDEVQSYLVSGELTAXHARAIAAAADPVALAKQIIEGGLSVRETEALARKAPNLSAGKSKGGRPPRVKDTDTQALESDLSSVLGLDVSIDHRGSTGTLTITYATLEQLDDLCNRLTRGI

Variants of: B1
Assay: one-hybrid fitness for binding parS DNA (scaled: cognate 1, non-cognate 0); higher = stronger binding
Details: with parS DNA site
Summary of the method: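 Fitness here means the log change in variant-to-wild-type read ratio between plasmids sequenced before and after selection. That scale was set so cognate equals 1 and non-cognate equals 0. The selection was a bacterial one-hybrid screen of Caulobacter ParB libraries, four specificity codons randomised, in E. coli USO carrying a HIS3 reporter with the site 19 bp from the promoter, grown 48 hours at 37°C on M9-minus-histidine with 0.1 mM IPTG and 5 mM 3-AT.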

Variant | one-hybrid fitness for binding parS DNA
RMLE | ≤ 0.2
ASYS | ≤ 0.2
RMYF | 0.289
VWDR | ≤ 0.2
AWDR | ≤ 0.2
CKSN | ≤ 0.2
RHTP | ≤ 0.2
WCIR | ≤ 0.2
TPRE | ≤ 0.2
AQMI | ≤ 0.2
PVMW | ≤ 0.2
AGCY | ≤ 0.2
ASTI | ≤ 0.2
KLSA | ≤ 0.2
HIWS | ≤ 0.2
PPKI | ≤ 0.2
RQKD | ≤ 0.2
QARS | ≤ 0.2
RHPG | 0.451
PYRQ | ≤ 0.2
VWMS | ≤ 0.2
SQEL | ≤ 0.2
KGFG | ≤ 0.2
YATC | ≤ 0.2
PQWC | ≤ 0.2

Variant | one-hybrid fitness for binding parS DNA
RRGV | ≤ 0.2
LDQS | ≤ 0.2
FAAH | ≤ 0.2
PCER | ≤ 0.2
WRVQ | ≤ 0.2
TPTM | ≤ 0.2
NNIC | ≤ 0.2
QAAH | ≤ 0.2
NNLT | ≤ 0.2
NPFV | ≤ 0.2
EFGR | ≤ 0.2
MSRA | ≤ 0.2
LISR | ≤ 0.2
KDTV | ≤ 0.2
HIKG | ≤ 0.2
RFPP | ≤ 0.2
VVPN | ≤ 0.2
WSST | ≤ 0.2
CWDT | ≤ 0.2
ETTF | ≤ 0.2
RHMI | ≤ 0.2
HRYW | ≤ 0.2
YNNV | ≤ 0.2
VPAS | ≤ 0.2
NLFM | ≤ 0.2

Variant | one-hybrid fitness for binding parS DNA
RHSC | 0.924
TCFR | ≤ 0.2
CGQT | ≤ 0.2
NLSI | ≤ 0.2
KPRS | ≤ 0.2
RQNV | ≤ 0.2
CQHS | ≤ 0.2
WSGA | ≤ 0.2
QTDN | ≤ 0.2
HKNA | ≤ 0.2
SAVR | ≤ 0.2
THQC | ≤ 0.2
GRAN | ≤ 0.2
PADQ | ≤ 0.2
HRLI | ≤ 0.2
GLCT | ≤ 0.2
RMIA | 0.537
AMES | ≤ 0.2
HLQS | ≤ 0.2
VHPI | ≤ 0.2
VSMM | ≤ 0.2
NQMA | ≤ 0.2
LAGF | ≤ 0.2
VMSI | ≤ 0.2
RAIK | ≤ 0.2

Variant | one-hybrid fitness for binding parS DNA
EHKA | ≤ 0.2
HPDD | ≤ 0.2
ASTV | ≤ 0.2
VRIL | ≤ 0.2
AAHV | ≤ 0.2
SPHH | ≤ 0.2
RWMQ | ≤ 0.2
RNPC | 0.358
RAVF | ≤ 0.2
EIKG | ≤ 0.2
NMAC | ≤ 0.2
LCRS | ≤ 0.2
PSYA | ≤ 0.2
GEET | ≤ 0.2
NWAS | ≤ 0.2
FRRP | ≤ 0.2
NNYG | ≤ 0.2
GHVM | ≤ 0.2
HICH | ≤ 0.2
AYAG | ≤ 0.2
CEKW | ≤ 0.2
PQNW | ≤ 0.2
RAYW | 0.27
VCYS | ≤ 0.2
GKPS | ≤ 0.2

Variant | one-hybrid fitness for binding parS DNA
VDKN | ≤ 0.2
TPAA | ≤ 0.2
YLHT | ≤ 0.2
NELA | ≤ 0.2
PIVH | ≤ 0.2
RQER | ≤ 0.2
WQEG | ≤ 0.2
QRFM | ≤ 0.2
CPNR | ≤ 0.2
SWTR | ≤ 0.2
CKKG | ≤ 0.2
RRKY | 0.856
RNYI | ≤ 0.2
CTSV | ≤ 0.2
INDT | ≤ 0.2
HRVW | ≤ 0.2
TFET | ≤ 0.2
NNLY | ≤ 0.2
YDNW | ≤ 0.2
RSQY | 0.459
QQYF | ≤ 0.2
TVDT | ≤ 0.2
YGVG | ≤ 0.2
RIEW | ≤ 0.2
WTDS | ≤ 0.2

Variant | one-hybrid fitness for binding parS DNA
HLIW | ≤ 0.2
LKQT | ≤ 0.2
VYLS | ≤ 0.2
SERF | ≤ 0.2
KADL | ≤ 0.2
QKMA | ≤ 0.2
KRTH | ≤ 0.2
CYEL | ≤ 0.2
IPMR | ≤ 0.2
HGLC | ≤ 0.2
QISW | ≤ 0.2
KYRR | ≤ 0.2
LDLM | ≤ 0.2
TGYS | ≤ 0.2
YDQG | ≤ 0.2
WFRC | ≤ 0.2
HFSD | ≤ 0.2
ARVP | ≤ 0.2
MSLA | ≤ 0.2
HNNR | ≤ 0.2
PEWA | ≤ 0.2
KRNQ | ≤ 0.2
WGQS | ≤ 0.2
YSER | ≤ 0.2
MRTS | ≤ 0.2

Variant | one-hybrid fitness for binding parS DNA
TDLN | ≤ 0.2
MSQG | ≤ 0.2
TTWN | ≤ 0.2
QPWS | ≤ 0.2
SKVY | ≤ 0.2
HMTY | ≤ 0.2
YCVT | ≤ 0.2
WQTF | ≤ 0.2
RSSK | ≤ 0.2
PICE | ≤ 0.2
KYDN | ≤ 0.2
LVTP | ≤ 0.2
KVMG | ≤ 0.2
AIKC | ≤ 0.2
MWMC | ≤ 0.2
NWLC | ≤ 0.2
LYEC | ≤ 0.2
SLMF | ≤ 0.2
KYLV | ≤ 0.2
SVNP | ≤ 0.2
ELDR | ≤ 0.2
SITD | ≤ 0.2
TNKC | ≤ 0.2
RNEG | 0.677
SPCS | ≤ 0.2

Variant | one-hybrid fitness for binding parS DNA
LHNM | ≤ 0.2
PYGS | ≤ 0.2
TQMY | ≤ 0.2
QLGG | ≤ 0.2
HSLA | ≤ 0.2
ATVS | ≤ 0.2
WWHR | ≤ 0.2
MINT | ≤ 0.2
SVFK | ≤ 0.2
WYTS | ≤ 0.2
APHE | ≤ 0.2
YYYS | ≤ 0.2
DDGE | ≤ 0.2
DFTG | ≤ 0.2
RLDD | ≤ 0.2
QPMV | ≤ 0.2
QICC | ≤ 0.2
PKVW | ≤ 0.2
RIPP | ≤ 0.2
AMTR | ≤ 0.2
